Experimental data from article PMC4336329 (PLoS ONE, 2015).
The campaign covered roughly 310,000 compounds. About 14,000 (4.5%) showed an effect of 50% or more. The effect is printed as a negative number. This is one part of the list.

molecular target: human ether-à-go-go-related gene (hERG) potassium channel (human, UniProt Q12809); assay: primary screen, population patch clamp on CHO cells stably expressing hERG
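Further: peak tail current of the secondary pulse compared with the same well before compound.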

Chain of human ether-à-go-go-related gene (hERG) potassium channel (Q12809 whole entry, looked up): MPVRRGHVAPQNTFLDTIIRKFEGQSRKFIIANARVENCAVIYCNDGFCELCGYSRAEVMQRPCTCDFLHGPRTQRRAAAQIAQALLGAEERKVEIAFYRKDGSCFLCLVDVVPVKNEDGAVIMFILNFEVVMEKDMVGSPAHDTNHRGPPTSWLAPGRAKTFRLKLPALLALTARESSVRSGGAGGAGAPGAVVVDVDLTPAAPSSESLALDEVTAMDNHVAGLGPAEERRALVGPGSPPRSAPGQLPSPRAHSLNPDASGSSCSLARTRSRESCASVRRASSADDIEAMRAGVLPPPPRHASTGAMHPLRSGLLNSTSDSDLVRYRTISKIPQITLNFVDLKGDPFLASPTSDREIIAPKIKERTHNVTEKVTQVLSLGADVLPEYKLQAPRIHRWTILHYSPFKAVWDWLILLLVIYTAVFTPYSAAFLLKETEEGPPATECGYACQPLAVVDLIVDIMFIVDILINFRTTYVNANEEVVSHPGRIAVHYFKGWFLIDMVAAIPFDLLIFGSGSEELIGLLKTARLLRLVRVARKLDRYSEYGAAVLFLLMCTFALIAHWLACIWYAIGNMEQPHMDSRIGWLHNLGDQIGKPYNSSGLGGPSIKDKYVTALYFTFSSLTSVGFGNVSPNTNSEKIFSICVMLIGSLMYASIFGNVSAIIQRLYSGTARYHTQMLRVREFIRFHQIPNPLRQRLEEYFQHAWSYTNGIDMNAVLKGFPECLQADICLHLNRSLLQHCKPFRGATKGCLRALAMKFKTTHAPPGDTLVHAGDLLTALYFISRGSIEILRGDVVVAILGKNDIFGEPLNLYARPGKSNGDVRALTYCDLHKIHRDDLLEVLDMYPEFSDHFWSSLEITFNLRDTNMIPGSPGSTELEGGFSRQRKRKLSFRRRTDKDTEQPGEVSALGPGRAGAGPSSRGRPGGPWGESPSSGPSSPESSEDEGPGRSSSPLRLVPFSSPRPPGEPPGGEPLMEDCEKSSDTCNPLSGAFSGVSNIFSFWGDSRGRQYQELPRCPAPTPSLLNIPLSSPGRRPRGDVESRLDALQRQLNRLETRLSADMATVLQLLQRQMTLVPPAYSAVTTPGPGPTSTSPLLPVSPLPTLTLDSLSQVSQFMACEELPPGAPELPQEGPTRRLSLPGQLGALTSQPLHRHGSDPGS

Compound | hERG current change (%, negative = inhibition) at 10uM [%]
CN(C)c1ccc(C(=O)c2ccc(O)cc2O)cc1 | -30.8
COC(=O)NNC(=O)COc1ccc(Br)c(C)c1 | -44.7
c1ccc(-c2nnc(C3CC(c4ccncc4)=NO3)o2)cc1 (centres unmarked) | 4.02
O=C(NCc1ccco1)C1CC(c2ccc(F)cc2)=NO1 (centres unmarked) | 8.73
Cc1ccc2c(c1)N(CCC(=O)N1CCC3(CC1)OCCO3)C(=O)CO2 | -16.8
COc1ccc(NC(=O)CN(C)C(=O)c2cc(-c3ccc(OC)cc3)nc3ccccc23)cc1 | -2.52
COc1ccc(OC)c(NC(=O)CCCN2C(=S)NC(C)(C)CC2C)c1 (centres unmarked) | 0.663
CCc1cc(=O)[nH]c(SCC(=O)NCc2ccc3c(c2)OCO3)n1 | 5.02
O=C(NCCc1ccccc1)C(=O)c1cn(CC(=O)N2CCCC2)c2ccccc12 | 10.6
CCN(CC(=O)Nc1ccccc1C(F)(F)F)C(=O)Cc1ccccc1 | 7.39
CCOCC(=O)Nc1cc([N+](=O)[O-])ccc1C | -2.36
N#C/C=C/N1CCC(Cc2ccccc2)CC1 | -45.3
OCCC1CN(Cc2ccc3cccc(F)c3n2)CCN1Cc1ccccc1 (centres unmarked) | -15.6
CCn1c(SCC(=O)Nc2ccccc2C(=O)OC)nnc1-c1ccc(N)cc1 | -36.4
Cc1nnc2n1-c1ccc(Br)cc1C(c1ccccc1Cl)=NC2 | -21.1
Cc1ccc(C)c(C(=O)CSc2n[nH]c(-c3ccncc3)n2)c1 | -0.0279
OCC[C@@H]1C[C@@H](O)[C@H](O)[C@@]2(CCCc3ccccc3O2)O1 | 15.1
Cc1cccc(N(C)C(=O)c2cc(S(=O)(=O)N3CCCC3)cn2C)c1 | -5.54
CCOc1cccc(OCCOCCn2cnc3ccccc3c2=O)c1 | -7.83
O=C(NCc1ccco1)c1cc(S(=O)(=O)N2CCCCC2)ccc1Cl | -34.8
CCOc1ccc(S(=O)(=O)n2cc(-c3ccccc3)c(N)n2)cc1 | 5.5
COc1cccc(C2c3[nH]c4ccccc4c3C[C@H]3C(=O)N(c4ccccc4C(=O)N4CCCC4C(=O)O)C(=O)N23)c1 (some centres unmarked) | -4.3
O=C(CSc1nc2ccccc2c(=O)n1NC(=O)c1ccccc1)c1ccc(Cl)cc1 | 0.301

Compound | hERG current change (%, negative = inhibition) at 10uM [%]
CCOC(=O)Cc1nnc(Nc2cccc(O)c2)c2ccccc12 | -24.9
O=S(=O)(NCCc1ccccn1)c1cc(Cl)cc(Cl)c1O | -15.9
Cc1nc2sc(C(c3ccco3)N3CCc4ccccc4C3)c(O)n2n1 (centres unmarked) | 15
CCCn1c(=N)c(C(=O)NCc2ccc3c(c2)OCO3)cc2c(=O)n3cccc(C)c3nc21 | -76.5
CCCCNC(=O)CCc1nc2cccnc2n1Cc1ccccc1 | -51.7
O=C(OCc1ccccc1)C1=NNC2C(=O)N(Cc3ccccc3)C(=O)C12 (centres unmarked) | 16.2
COc1cccc(N(C(=O)CS(=O)CC(=O)Nc2ccc(F)cc2)C(C(=O)NC2CCCCC2)c2cccs2)c1 (centres unmarked) | 2.24
CC1(C(=O)Nc2nnc(SCc3ccccc3)s2)Cc2ccccc2C(=O)O1 (centres unmarked) | -24.6
CCOC(=O)Cn1c(-c2cccnc2Cl)nc2cc(C)c(C)cc21 | -11.8
CSc1nc(N)nc(SC2C=CCCC2)c1C#N (centres unmarked) | -21.3
Cc1ccc(NCc2nnc(SCC(=O)N3CCCCC3)n2CC2CCCO2)c(C)c1 (centres unmarked) | -5.62
CC(=O)c1ccc(N=C2SCCCN2C(=O)C2CCCC2)cc1 | -2.8
Cc1cc(S(=O)(=O)N2CCCC2)ccc1OCC(=O)NC1CCCC1 | -3.56
Cc1cc(C)nc(N(C#N)Cc2ccc(Cl)cc2)n1 | -8.48
COc1ccc(CCNC(=O)CCCN2C(=O)c3ccccc3C2=O)cc1OC | 2.11
COc1ccc(CCNc2nc(C)nc3c2nnn3Cc2ccccc2)cc1 | 16.9
Cc1ccccc1CC(=O)Nc1ccc2c(C)cc(=O)oc2c1 | -15.3
Clc1ccc(C2=CC(c3ccco3)n3ncnc3N2)cc1 (centres unmarked) | -36.4
CCOC(=O)c1cc2c(n(-c3ccc(C)cc3)c1=O)CCCC2=O | -45.4
COc1ccc(Oc2ccc(C(F)(F)F)cc2NC(=O)c2ccc(C)cc2)cc1 | 4.33
CCOC(=O)N1CCN(Cc2nc(-c3ccc(Cl)cc3)no2)CC1 | -30.6
Cc1ccc(S(=O)(=O)N(C)C)cc1NC(=O)CCc1c[nH]c2ccccc12 | -22.8
CCOC(=O)c1cccc(NC(=O)CCOc2ccccc2)c1 | 11.3

Compound | hERG current change (%, negative = inhibition) at 10uM [%]
OCCc1c[nH]c2ccc(OCc3ccccc3)cc12 | 3.65
O=C(O)C1C2C=CC3(CN(Cc4ccccn4)C(=O)C13)O2 (centres unmarked) | 3.43
COc1cnc(-c2ccccn2)nc1Oc1ccc(C(C)(C)C)cc1 | -2.72
Cc1ccc(/C=N/NC(=O)c2nnn(-c3nonc3N)c2CN(C)C)s1 | 2.16
COC(=O)C1=C(C)N(CCCCCC(=O)O)C(=O)NC1c1ccccc1 (centres unmarked) | -2.04
COc1ccc(C(=O)Cc2ccc(F)cc2)c(OC)c1 | -7.35
CCOC(=O)c1ccccc1NC(=O)COC(=O)c1cc([N+](=O)[O-])ccc1N1CCOCC1 | -21.3
COC(=O)c1cccc(NC(N)=S)c1 | 14.1
O=C(NC(=S)Nc1ccccc1N1CCCCC1)c1ccc(F)cc1 | 9.33
Cc1c(OC(C)C(=O)NCCCN2CCCC2=O)ccc2c3c(c(=O)oc12)CCCC3 (centres unmarked) | -6.3
CC(CN1CCOCC1)OC(=O)C(C)(c1ccccc1)c1ccccc1 (centres unmarked) | -8.05
Cc1ccc2nc(-c3cccnc3)cc(C(=O)Nc3ccc(F)cc3C)c2c1 | -13.5
CCNC(=O)CC1C(=O)N(c2cccc(OC)c2)C(=O)N1CCOC (centres unmarked) | 8.39
CC(NCc1ccc(N(C)C)cc1)C1CC2CCC1C2.Cl (centres unmarked) | -5.02
Cc1cc(NS(=O)(=O)c2ccc(NC(=O)C(C)Oc3cc(C)c(Cl)c(C)c3)cc2)no1 (centres unmarked) | -3.05
O=C1CC(c2ccccc2Cl)CC(O)=C1C=NCCCO (centres unmarked) | -1.74
c1ccc(C2OCC3(CO2)COC(c2ccccc2)OC3)cc1 (centres unmarked) | 4.18
Cc1ccc(C(=O)Nc2cc([N+](=O)[O-])ccc2F)s1 | 0.853
CCOc1ccc2nc(NC(=O)CN3CCC(n4nnc5cc(C(F)(F)F)ccc54)CC3)sc2c1 | 7.59
O=C(O)CCNS(=O)(=O)c1ccc(Oc2ccccc2)cc1 | 0.639
Nc1c(-c2ccccc2)cnn1-c1cccc(C(F)(F)F)c1 | 1.64
Cc1cc(N2CCN(C)CC2)nc2ccc(NC(=O)CCC(=O)NCCCOC(C)C)cc12 | 21.5
CN(C)c1ccc(/C=N\S(=O)(=O)c2ccccc2)cc1 | -15.7

Compound | hERG current change (%, negative = inhibition) at 10uM [%]
CCCNC(=O)COC(=O)c1cc2c(=O)n3ccccc3nc2s1 | 2.01
CCN(CC)C(=O)C[n+]1cccc(/C=N/O)c1 | 21
S=C(Nc1cccnc1)N1CCCCC1 | 33.3
O=C(NC1CCCCC1)C1(S(=O)(=O)c2ccc(Cl)cc2)CC1 | 0.692
O=C1Nc2ccccc2C(=O)C1(Cl)Cc1ccccc1 (centres unmarked) | 0.0294
COc1ccc(NC(=O)C2CC(=O)OC2(C)C)cc1 (centres unmarked) | 3.44
Cc1cc(OCC(O)CN2CCN(c3ccccn3)CC2)cc(C)c1Cl.Cl (centres unmarked) | -0.237
COc1cc(NC(=O)CSc2nncn2C)c(C)cc1[N+](=O)[O-] | 29
O=S(=O)(CCSc1ccccn1)c1nc2ccccc2s1 | -4.26
Cc1cc2nc(CN(C)Cc3c(C(=O)N(C)C)nc4ccc(Cl)cn34)[nH]c2cc1C | -42.7
COCCn1c(SCC(=O)NC2CCCCC2C)nc2ccccc2c1=O (centres unmarked) | -2.48
COc1ccc2[nH]c3c(=O)n(CCCC(=O)NC4CCC(C)CC4)c(=S)[nH]c3c2c1 (centres unmarked) | 16.8
COc1ccc(N2CCN(CCNC(=O)Nc3ccc(C)cc3Cl)CC2)cc1 | -9.48
COc1cccc(C(c2sc3ncnn3c2O)N2CC(C)OC(C)C2)c1 (centres unmarked) | 0.441
O=S(=O)(Nc1cnc2ccccc2c1)N1CCCCCC1 | -14.8
CCSc1nnc(CNc2ccc(F)cc2)n1CC1CCCO1 (centres unmarked) | -15.1
CC(C)OCCCNc1ccc(N2C(=O)CCCC2=O)cc1[N+](=O)[O-] | 3.25
Brc1ccc(-c2c[n+]3c(n2-c2ccccc2)SCC3)cc1.[Br-] | -49.4
Cc1nc(S(=O)(=O)Nc2ccc3c(c2)OCCO3)cn1C | 13.1
COc1cc(CC(=O)OCC(=O)NCc2ccc(C)cc2)cc(OC)c1OC | -6.31
